The supplement of paper PMC12067230
This is a noisy data set.
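Further: [psi-pin-] Saccharomyces cerevisiae expressing SupN fusions, induced by 100 µM Cu2SO4, selected 7 d at 30 °C without adenine and uracil, scored by deep sequencing of output versus input.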

Experiment: amyloid nucleation score relative to library mode (yeast Sup35 reporter selection) (log enrichment difference); higher = more amyloid nucleation; sequences are the first 22 residues of the Bri2 peptide extended by up to 12 random residues
Details: random library (experiment): 1;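 active = nucleation score significantly above 0 at FDR 0.05; inactive = not significantly above 0 or absent from output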
For EASNCFAIRHFENKFAVETLICYRRLCEGPTLRV, the amyloid nucleation score was “inactive”.
Sequence EASNCFAIRHFENKFAVETLICLPRDSTLNRGCL has an amyloid nucleation score of -0.227.
In the case of EASNCFAIRHFENKFAVETLICHGDRIHL, the amyloid nucleation score is reported as “inactive”.
For EASNCFAIRHFENKFAVETLICIVSMFIGMSAVE, the amyloid nucleation score was “inactive”.
For EASNCFAIRHFENKFAVETLICVLMIYCDRRFGD, the amyloid nucleation score was “inactive”.
Sequence EASNCFAIRHFENKFAVETLICFYG has an amyloid nucleation score of 6.64.
Sequence EASNCFAIRHFENKFAVETLICGGVVIGSVRAPV has an amyloid nucleation score of 7.27.
EASNCFAIRHFENKFAVETLICRHRLVGGEVNNG showed an amyloid nucleation score of 0.443.
For EASNCFAIRHFENKFAVETLICDCEVETRFLDGG, the amyloid nucleation score was “inactive”.
In the case of EASNCFAIRHFENKFAVETLICVLMGYVVRRQVL, the amyloid nucleation score is reported as “inactive”.
In the case of EASNCFAIRHFENKFAVETLICKCRFPGHAFVAM, the amyloid nucleation score is reported as “inactive”.
With EASNCFAIRHFENKFAVETLICDGKRMGWLVWAG the amyloid nucleation score was “inactive”.
In the case of EASNCFAIRHFENKFAVETLICGTSCSGM, the amyloid nucleation score is reported as “inactive”.
In the case of EASNCFAIRHFENKFAVETLICNVSVCKCASKVA, the amyloid nucleation score is reported as 8.11.
EASNCFAIRHFENKFAVETLICLAWRSGYRWVEE gave an amyloid nucleation score of 0.664.
For EASNCFAIRHFENKFAVETLICGSCPMILPDPWL, the amyloid nucleation score was 8.57.
Sequence EASNCFAIRHFENKFAVETLICGDSSGEAGLTVG has an amyloid nucleation score of -0.25.
In the case of EASNCFAIRHFENKFAVETLICRILLISTDCIAS, the amyloid nucleation score is reported as “inactive”.
In the case of EASNCFAIRHFENKFAVETLICLKAVDVCMWR, the amyloid nucleation score is reported as “inactive”.
For EASNCFAIRHFENKFAVETLICQQGKHRNKEAPT, the amyloid nucleation score was “inactive”.
EASNCFAIRHFENKFAVETLICQREVSFTVAQVM gave an amyloid nucleation score of -0.265.
With EASNCFAIRHFENKFAVETLICRE the amyloid nucleation score was -0.0664.
For EASNCFAIRHFENKFAVETLICFDKGLWLMSS, the amyloid nucleation score was “inactive”.
With EASNCFAIRHFENKFAVETLICWCVRSPRTPCDG the amyloid nucleation score was “inactive”.
For EASNCFAIRHFENKFAVETLICLDAQYRQVTGEA, the amyloid nucleation score was “inactive”.
With EASNCFAIRHFENKFAVETLICGILSAGRMMRAR the amyloid nucleation score was “inactive”.
For EASNCFAIRHFENKFAVETLICGFNGESRSPVRG, the amyloid nucleation score was “inactive”.
In the case of EASNCFAIRHFENKFAVETLICGVVSLSCLKCNA, the amyloid nucleation score is reported as 7.44.
In the case of EASNCFAIRHFENKFAVETLICGE, the amyloid nucleation score is reported as “inactive”.
With EASNCFAIRHFENKFAVETLICGQRSCPSHEHLR the amyloid nucleation score was “inactive”.
With EASNCFAIRHFENKFAVETLICGSQSCFRRLVSV the amyloid nucleation score was “inactive”.
With EASNCFAIRHFENKFAVETLICPDGR the amyloid nucleation score was “inactive”.
Work on EASNCFAIRHFENKFAVETLICFGLMCVVAGHRR yielded an amyloid nucleation score of 3.21.
For EASNCFAIRHFENKFAVETLICMIRRM, the amyloid nucleation score was “inactive”.
Work on EASNCFAIRHFENKFAVETLICVG yielded an amyloid nucleation score of -0.626.
In the case of EASNCFAIRHFENKFAVETLICTTERVSARGVWP, the amyloid nucleation score is reported as “inactive”.
For EASNCFAIRHFENKFAVETLICDPPFSSYMTCGM, the amyloid nucleation score was “inactive”.
For EASNCFAIRHFENKFAVETLICAVLARK, the amyloid nucleation score was 1.29.
In the case of EASNCFAIRHFENKFAVETLICVKCSTVCGEPYF, the amyloid nucleation score is reported as 4.81.
EASNCFAIRHFENKFAVETLICVPIRGMAWWWDW showed an amyloid nucleation score of 3.82.
In the case of EASNCFAIRHFENKFAVETLICGI, the amyloid nucleation score is reported as “inactive”.
In the case of EASNCFAIRHFENKFAVETLICDRSGV, the amyloid nucleation score is reported as “inactive”.
With EASNCFAIRHFENKFAVETLICVRSRRQPAQLVR the amyloid nucleation score was “inactive”.
With EASNCFAIRHFENKFAVETLICMPSVRRWIEVVR the amyloid nucleation score was 0.49.
For EASNCFAIRHFENKFAVETLICTCGSLRTLSVLR, the amyloid nucleation score was “inactive”.
EASNCFAIRHFENKFAVETLICTYGQWL gave an amyloid nucleation score of 1.28.
In the case of EASNCFAIRHFENKFAVETLICVSRGRGRRTLTD, the amyloid nucleation score is reported as “inactive”.
For EASNCFAIRHFENKFAVETLICDG, the amyloid nucleation score was “inactive”.
Sequence EASNCFAIRHFENKFAVETLICLRRI has an amyloid nucleation score of 4.18.

Same assay, conditions: random library (experiment): 2
With EASNCFAIRHFENKFAVETLICYIRPSGNKCSF the amyloid nucleation score was 2.71.
With EASNCFAIRHFENKFAVETLICDDLGRFR the amyloid nucleation score was “inactive”.
EASNCFAIRHFENKFAVETLICKWYMSDSCYARQ showed an amyloid nucleation score of 2.93.
For EASNCFAIRHFENKFAVETLICMMDNSIPDWCGM, the amyloid nucleation score was 5.38.
In the case of EASNCFAIRHFENKFAVETLICRYRALAMGLVCC, the amyloid nucleation score is reported as “inactive”.
Sequence EASNCFAIRHFENKFAVETLICIDWWFS has an amyloid nucleation score of -0.174.
EASNCFAIRHFENKFAVETLICDVDIHCTFGFSG showed an amyloid nucleation score of 4.25.
In the case of EASNCFAIRHFENKFAVETLICISGCYV, the amyloid nucleation score is reported as 4.57.
With EASNCFAIRHFENKFAVETLICLRLCMSILHAVY the amyloid nucleation score was “inactive”.
Sequence EASNCFAIRHFENKFAVETLICFLERSVSGLVRL has an amyloid nucleation score of 0.301.
With EASNCFAIRHFENKFAVETLICGNFRCTIRAVTF the amyloid nucleation score was “inactive”.
For EASNCFAIRHFENKFAVETLICDGLCTYCLKRDL, the amyloid nucleation score was “inactive”.
In the case of EASNCFAIRHFENKFAVETLICVPNVCS, the amyloid nucleation score is reported as 3.99.
Work on EASNCFAIRHFENKFAVETLICMRRIMYLRFRGS yielded an amyloid nucleation score of -0.122.
In the case of EASNCFAIRHFENKFAVETLICRVMSMSSPFKTV, the amyloid nucleation score is reported as “inactive”.
In the case of EASNCFAIRHFENKFAVETLICTHKFVSEPGGTS, the amyloid nucleation score is reported as “inactive”.
EASNCFAIRHFENKFAVETLICLSKFRHKKCT gave an amyloid nucleation score of -0.191.
In the case of EASNCFAIRHFENKFAVETLICLDMCYCLVVISL, the amyloid nucleation score is reported as “inactive”.
Sequence EASNCFAIRHFENKFAVETLICYNRVNWV has an amyloid nucleation score of 4.79.
In the case of EASNCFAIRHFENKFAVETLICISFAWLKIIRYG, the amyloid nucleation score is reported as “inactive”.
For EASNCFAIRHFENKFAVETLICYMRGPFYSYIGH, the amyloid nucleation score was “inactive”.
For EASNCFAIRHFENKFAVETLICRGELEEMWEELK, the amyloid nucleation score was “inactive”.
With EASNCFAIRHFENKFAVETLICHSRGFKEPSV the amyloid nucleation score was “inactive”.
EASNCFAIRHFENKFAVETLICIDISAYISAVQV gave an amyloid nucleation score of 0.536.
In the case of EASNCFAIRHFENKFAVETLICVDSLCAQFVLRS, the amyloid nucleation score is reported as 5.44.
EASNCFAIRHFENKFAVETLICFIQYNEMGSSIW gave an amyloid nucleation score of 6.68.
EASNCFAIRHFENKFAVETLICGINASFRITNQV gave an amyloid nucleation score of 4.83.
With EASNCFAIRHFENKFAVETLICWIRQYLYAFGCC the amyloid nucleation score was “inactive”.
Work on EASNCFAIRHFENKFAVETLICYCLSSFKYVLYR yielded an amyloid nucleation score of 2.92.
EASNCFAIRHFENKFAVETLICKHYVRCCSSDMF gave an amyloid nucleation score of 8.15.
EASNCFAIRHFENKFAVETLICIVMLTIYYVLTW gave an amyloid nucleation score of 2.64.
Sequence EASNCFAIRHFENKFAVETLICCIFDFNVPCVMD has an amyloid nucleation score of 8.39.
In the case of EASNCFAIRHFENKFAVETLICFLLWG, the amyloid nucleation score is reported as “inactive”.
With EASNCFAIRHFENKFAVETLICPDRKIWFCSLGR the amyloid nucleation score was “inactive”.
In the case of EASNCFAIRHFENKFAVETLICLTRFWAL, the amyloid nucleation score is reported as “inactive”.
With EASNCFAIRHFENKFAVETLICVWKTFIEGYMCS the amyloid nucleation score was 1.1.
For EASNCFAIRHFENKFAVETLICGLYGIWMEAIRV, the amyloid nucleation score was “inactive”.
With EASNCFAIRHFENKFAVETLICECLSLACSGPSN the amyloid nucleation score was 6.79.
With EASNCFAIRHFENKFAVETLICLYSLHLRIAFPG the amyloid nucleation score was “inactive”.
In the case of EASNCFAIRHFENKFAVETLICDAWV, the amyloid nucleation score is reported as “inactive”.
In the case of EASNCFAIRHFENKFAVETLICWFSTTIPPVSSC, the amyloid nucleation score is reported as 5.43.
With EASNCFAIRHFENKFAVETLICYNKVHQYCAYVH the amyloid nucleation score was “inactive”.
Sequence EASNCFAIRHFENKFAVETLICNITISKTLTATG has an amyloid nucleation score of 0.
With EASNCFAIRHFENKFAVETLICINSGAEVVWGHW the amyloid nucleation score was 3.41.
With EASNCFAIRHFENKFAVETLICDMLKV the amyloid nucleation score was 0.393.

Same assay, conditions: random library (experiment): 3
For EASNCFAIRHFENKFAVETLICGCASDGTGVGL, the amyloid nucleation score was “inactive”.
For EASNCFAIRHFENKFAVETLICRVR, the amyloid nucleation score was “inactive”.
With EASNCFAIRHFENKFAVETLICDGWTCVIQFDAE the amyloid nucleation score was 3.14.
With EASNCFAIRHFENKFAVETLICVVGMVRGRSEIA the amyloid nucleation score was 2.62.
In the case of EASNCFAIRHFENKFAVETLICYSYMFRWSTWYA, the amyloid nucleation score is reported as “inactive”.
With EASNCFAIRHFENKFAVETLICPSVVAFSDVLLY the amyloid nucleation score was “inactive”.
For EASNCFAIRHFENKFAVETLICLLVSGTRHYGLY, the amyloid nucleation score was “inactive”.
EASNCFAIRHFENKFAVETLICLSCV showed an amyloid nucleation score of 7.95.
For EASNCFAIRHFENKFAVETLICVLTWPHRLMSPV, the amyloid nucleation score was “inactive”.
For EASNCFAIRHFENKFAVETLICLWSGQELTAPVV, the amyloid nucleation score was “inactive”.
EASNCFAIRHFENKFAVETLICCDRS showed an amyloid nucleation score of 5.07.
With EASNCFAIRHFENKFAVETLICLSGNNRVGSSGA the amyloid nucleation score was “inactive”.
EASNCFAIRHFENKFAVETLICGPARRAAECEVF showed an amyloid nucleation score of -0.553.
With EASNCFAIRHFENKFAVETLICTLHMI the amyloid nucleation score was “inactive”.
EASNCFAIRHFENKFAVETLICLQSVGWRHGSGV gave an amyloid nucleation score of 4.66.
In the case of EASNCFAIRHFENKFAVETLICHADGQSSALAGW, the amyloid nucleation score is reported as “inactive”.
With EASNCFAIRHFENKFAVETLICNDARR the amyloid nucleation score was “inactive”.
For EASNCFAIRHFENKFAVETLICVPGLGS, the amyloid nucleation score was “inactive”.
For EASNCFAIRHFENKFAVETLICLGLSEGWTGEVV, the amyloid nucleation score was “inactive”.
With EASNCFAIRHFENKFAVETLICLDSMIEDEARRQ the amyloid nucleation score was “inactive”.
With EASNCFAIRHFENKFAVETLICYDQERRAHLLSG the amyloid nucleation score was “inactive”.
For EASNCFAIRHFENKFAVETLICYPVRFQCDILGV, the amyloid nucleation score was “inactive”.
With EASNCFAIRHFENKFAVETLICASRSRGEIARAG the amyloid nucleation score was “inactive”.
With EASNCFAIRHFENKFAVETLICDESVA the amyloid nucleation score was “inactive”.
In the case of EASNCFAIRHFENKFAVETLICMCFFDTEYAVR, the amyloid nucleation score is reported as “inactive”.
For EASNCFAIRHFENKFAVETLICGNMLSLEFYGGE, the amyloid nucleation score was 8.56.
